In publication PMC10726135 one finds binding signal (log2 normalized intensity) data, which are given here for 93 sequences.

The other results are listed elsewhere or left out. At the low end of the ranking the order means little. Measured with an extract: partners may take part in the binding.

The experiment has as its target T1, HNF4alpha8 (COS-7 nuclear extract) (UniProt P41235-5).
T1 sequence: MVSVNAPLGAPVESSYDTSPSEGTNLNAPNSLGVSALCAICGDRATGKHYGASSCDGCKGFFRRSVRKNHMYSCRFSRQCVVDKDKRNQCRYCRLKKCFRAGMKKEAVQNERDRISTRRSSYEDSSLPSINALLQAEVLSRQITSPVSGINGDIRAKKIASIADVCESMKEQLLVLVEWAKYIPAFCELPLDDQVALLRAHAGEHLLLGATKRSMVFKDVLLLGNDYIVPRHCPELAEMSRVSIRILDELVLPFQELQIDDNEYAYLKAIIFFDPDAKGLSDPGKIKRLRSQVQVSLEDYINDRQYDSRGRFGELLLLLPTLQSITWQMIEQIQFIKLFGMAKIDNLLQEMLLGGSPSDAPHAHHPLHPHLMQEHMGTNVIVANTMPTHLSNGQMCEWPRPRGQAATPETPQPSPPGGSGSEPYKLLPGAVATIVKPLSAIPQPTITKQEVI
As to the kind of experiment: protein-binding microarray. The following applies: COS-7 nuclear extract on double-stranded Agilent 4x180k PBM; binding buffer, salt, pH and temperature not given; high values mean tight binding; double strand, one strand shown; sequences stand for … in …GCCTAGGGAGATTAGAGTATCGGTCGA
As to GATGAGTGACCTTTGACCTCAGAGAGCCGG, the binding signal (log2 normalized intensity) is 9.88.

Regarding GTCCTTTAACAAGGACAAAGGTCAACAAAC, the binding signal (log2 normalized intensity) turned out to be 6.77.

With TAACTTGAGTGTGCACCCTGGTCTCTCTTA, the binding signal (log2 normalized intensity) came out at 0.729.

In the case of ATTTTCTCACTCTAAAGGAAGGGATTATAA, the binding signal (log2 normalized intensity) is -1.25.

In the case of AGTGAACTCAAAGAAAAGTTATGTTGGGCA, the binding signal (log2 normalized intensity) amounted to 0.603.

For the sequence TTCTGTCTTTTTAATAGTGCATTATCAGTA, the binding signal (log2 normalized intensity) amounted to 1.23.

With CTAGCCACAGGGGAAACACAGACTCCAAAG, the binding signal (log2 normalized intensity) is -1.25.

In the case of GGACTGAACAGATATTGGCCAAAGGGCACA, the binding signal (log2 normalized intensity) is 3.64.

Turning to CTACTTTTAAAACGCTCAAATAAGCCTTGC, the binding signal (log2 normalized intensity) was -1.26.

AGCATCTTATCAGCAGGAGACCTGAAACTA: the binding signal (log2 normalized intensity) is -1.09.

Turning to CACTTTCCACTCTCTACTGATATGTCCTCC, the binding signal (log2 normalized intensity) amounted to 1.83.

On to TTTGCCCTCAAGGAGTTTTAGATTAGGAGA, for which the binding signal (log2 normalized intensity) is -0.372.

Take GCCTGAGCATCTTATCAGCAGGAGACCTGA: the binding signal (log2 normalized intensity) was -1.28.

In the case of TTGAGTGGTTTACTGCGTCACAAGTCACAA, the binding signal (log2 normalized intensity) was -1.35.

With GCTGCCATCCCACATTCCACAGACTCACTT, the binding signal (log2 normalized intensity) is -1.33.

Take GCAGATGGGCAGCACTGTGATTTGTTCAGG: the binding signal (log2 normalized intensity) was -0.302.

For AGAGCCGGGAAAGGCCGGAGGGCGGGGCGG, the binding signal (log2 normalized intensity) is -1.21.

On to GTATTAACATGTAAATATGACCTTTGCTTT, for which the binding signal (log2 normalized intensity) came out at 7.1.

For AGAGGACAGAAGAAGGAAAAGGCCTGACCT, the binding signal (log2 normalized intensity) is 1.07.

With GGGAAAAGATAAGATTATCTCGTCACCTTT, the binding signal (log2 normalized intensity) was 1.34.

In the case of CAGGACCAGGTGTAGATAAACTGGAAAGGG, the binding signal (log2 normalized intensity) was -1.25.

Turning to TCTCTGGTCGGGGAGGTGTTTATCTTGTGG, the binding signal (log2 normalized intensity) turned out to be 1.93.

For the sequence ATTCCTTCAGGAAGGCCTGTTAAAAACACG, the binding signal (log2 normalized intensity) was -1.37.

As for TCCTACTGACCTCCGACCCCACGGACTTAA, the binding signal (log2 normalized intensity) turned out to be 4.54.

For CCTGAGATGTCTGCTTCTTGGGTCAAAGTC, the binding signal (log2 normalized intensity) stood at 3.38.

With AAGAAAAACAAGTGGAGTAGGATTTCTAGT, the binding signal (log2 normalized intensity) is -1.34.

For CATGAGAAACATGACACCCATCATGAGTAG, the binding signal (log2 normalized intensity) is -1.24.

For TATCTAGGGTCAAAGGGTCAAGTTCAGATC, the binding signal (log2 normalized intensity) is 6.

Consider TATGCTCTCTCTCCACCTGGAGGGACTTTG, for which the binding signal (log2 normalized intensity) turned out to be 3.06.

With TGGTCCAAGGTACATGTCTCTGCTCCTAAA, the binding signal (log2 normalized intensity) came to 1.82.

Regarding CTTGTCCAGGGACTTTGAACACTTCTTTGT, the binding signal (log2 normalized intensity) worked out at 4.28.

For the sequence TCTATCTCCCTGTGACCTCCAACTATTGCT, the binding signal (log2 normalized intensity) turned out to be 0.866.

Take TAGTTTTGTAACTTAAAGATCATGTTTGAG: the binding signal (log2 normalized intensity) worked out at 1.62.

Take GTCCAAGTCCAAAGGTCTGAGAACCAAGAG: the binding signal (log2 normalized intensity) was determined as 4.01.

As for GAACTTTGACTTATTTAGTAGTGGCAAGAG, the binding signal (log2 normalized intensity) turned out to be 3.1.

For the sequence CACAGCACTGTTTATTTTGTGTGATACTCA, the binding signal (log2 normalized intensity) amounted to 1.68.

Take TTCTGGCAAAGCCAATCTGCTTAAAGGCAA: the binding signal (log2 normalized intensity) was -1.2.

Take TCGGCTCCATCTAGCAGCCCCAACCCACTG: the binding signal (log2 normalized intensity) turned out to be 3.02.

For the sequence AGTTCAGGCCTCGGCTTCATTAGCAAATAA, the binding signal (log2 normalized intensity) is -1.39.

On to GCATTTTGCAGACCTTGGTCAAAGTGACAC, for which the binding signal (log2 normalized intensity) was 2.31.

Consider GGCCTGTGCTGGGGACAAAAGCTGAGTCCC, for which the binding signal (log2 normalized intensity) was -1.34.

With CTTGAGCACTAAAGAGGCTACCAGACCTTG, the binding signal (log2 normalized intensity) is -1.34.

Turning to CACACGGTGTCCAGATTCCAGCCTCCTGCT, the binding signal (log2 normalized intensity) was -1.4.

GGGCATAGCAGATAAGCATTGTGTGTGTTG: the binding signal (log2 normalized intensity) came to 1.88.

With TCCAGAAGGTCAGGACCACACATTCCATTA, the binding signal (log2 normalized intensity) is -0.984.

As to TGGGGGAAATTCTCAAAAGTTTTTCCCTTC, the binding signal (log2 normalized intensity) came out at 0.231.

Turning to GGAGTTAGGGAAAAGATAAGGCGTAGTTCA, the binding signal (log2 normalized intensity) is -0.354.

ACCTGACTAAAACCTGCTGCAGGAGAGATG: the binding signal (log2 normalized intensity) is -1.38.

As to GCAGTGGCGCAATCTCAGCTCAATCTCTGT, the binding signal (log2 normalized intensity) is -1.39.

As for GGAATGCAGTGACATGATCAAAGTTCATTG, the binding signal (log2 normalized intensity) amounted to 5.01.

Consider TTTCAAAGACAAATATCGACAAGCCAGATC, for which the binding signal (log2 normalized intensity) is -1.31.

Regarding CAGCAAGCATTAATCCCTGAGCCTGGACCT, the binding signal (log2 normalized intensity) amounted to 2.58.

TGTTTCTGGAGAATGCTGTCCTGCCAGTTG: the binding signal (log2 normalized intensity) was -0.0727.

On to AGAAGCACGTGCAAAGTACAAAGTACAGAG, for which the binding signal (log2 normalized intensity) was determined as 4.6.

CCAGTGGACTCTCTGTTTGATCAGCTGGTC: the binding signal (log2 normalized intensity) came out at 2.29.

Regarding CTTCCCATAAAACCTAGACAGAAGCTTTCT, the binding signal (log2 normalized intensity) was -1.34.

In the case of GGGGAATAAAGAACGCTCACAGAAAGAAGA, the binding signal (log2 normalized intensity) was -1.37.

As to AGGATTTACTTATACAGCGTCTAAGAAGAT, the binding signal (log2 normalized intensity) was -1.24.

Regarding CTGCATTCCTCCTGGCCTCTCTGAGCAGCC, the binding signal (log2 normalized intensity) was -1.27.

As for CTTTCCACCCTGTTGCACAAGCTGTGTGGC, the binding signal (log2 normalized intensity) was determined as 0.723.

Regarding AAACAGGTTCTTCCACGACTCCCCCGCTCA, the binding signal (log2 normalized intensity) was 3.05.

Regarding CTTTGACCTTTCCATAGTTCCGAGTTCCCT, the binding signal (log2 normalized intensity) was 2.05.

On to CAAAGTCCTAGAGTCCCTATTTGCTTGTGA, for which the binding signal (log2 normalized intensity) was 1.21.

As for CCAGCTCTTTACTCAGGTCATCAGGACTCT, the binding signal (log2 normalized intensity) was found to be 0.914.

Turning to TTCTTAAACGTATGCCACATCACCTCTGAC, the binding signal (log2 normalized intensity) was -1.14.

On to CCTCGGCTCGGCCCCAGTCCCCCGGACCAG, for which the binding signal (log2 normalized intensity) was 3.79.

For GAATGTGTGATAAGGAACTGTGTAATAAGG, the binding signal (log2 normalized intensity) is 0.666.

As to CTTTTGGTGAGTCTTTGCCCCTGGACTTTG, the binding signal (log2 normalized intensity) turned out to be 5.85.

For AGGGAATTTCTAGGTTTGATCTTTGCCCTA, the binding signal (log2 normalized intensity) turned out to be 7.66.

With AAGTGGTGATTTCGTTGAAAGCTGCTTCCC, the binding signal (log2 normalized intensity) was -1.2.

As for GGTTAAGCCACCAAAAAGTAAATAGCCCCA, the binding signal (log2 normalized intensity) is 3.46.

Turning to GGTGAGGGTGGGCCTGGGGGGAGACAACTG, the binding signal (log2 normalized intensity) is -1.35.

Regarding GATACCTTCCTGAATGCCTAGGTGACAAGG, the binding signal (log2 normalized intensity) is -0.803.

For CTCTGTGATAGCCTTTTACCTTGGCAGCCA, the binding signal (log2 normalized intensity) was -0.147.

Take TTGACCTTCGAACCCTTGCCATTTACATCA: the binding signal (log2 normalized intensity) is 6.21.

With TTCTGCGGAAATAATTGATTCAGGTGAGCC, the binding signal (log2 normalized intensity) was -0.354.

As to CTATGCCCTTTGAAATTCTGGACTTTCAAC, the binding signal (log2 normalized intensity) was determined as 5.94.

As to ATGAGCTAGAGCTCGTGTCATCTCTGGCTA, the binding signal (log2 normalized intensity) was -1.39.

For CAGACTAGTATTGAGTTTGCTCTGCTACTA, the binding signal (log2 normalized intensity) was -1.06.

For ACAGGGCAAAGGTGCCAGGTAATTCAAAGC, the binding signal (log2 normalized intensity) was -0.45.

Regarding AAGCAGGTTCACATTTTTGTCATCTTCACT, the binding signal (log2 normalized intensity) amounted to 0.204.

As to TGTCAAAATCTGATCTTTCCTCTAAGTGCC, the binding signal (log2 normalized intensity) stood at 0.364.

For the sequence GATGTGTGAAGGACACAGAATGACTTTCAG, the binding signal (log2 normalized intensity) is -0.193.

Turning to GAAAGTCTTGATAAGAAACCCAAGATTTGG, the binding signal (log2 normalized intensity) is -1.03.

CATGCTCCCCACCCCCAACTTCCCCAACCC: the binding signal (log2 normalized intensity) is 6.6.

For the sequence GATCCACGGAGAATGTAGACCTTTACCACC, the binding signal (log2 normalized intensity) turned out to be 2.35.

As for GCAGAGTGTCCCATATCACATTTTAAGGTC, the binding signal (log2 normalized intensity) amounted to 2.25.

TTCTTTTAGTGTGCTCTGGGTCTGTCCTTT: the binding signal (log2 normalized intensity) came out at 3.03.

Turning to GGCCTTTGGACCCAGACTGAATCACACTAC, the binding signal (log2 normalized intensity) worked out at 4.85.

For the sequence CCCCTACACAGAGGAGCGACCCAGGCAGCC, the binding signal (log2 normalized intensity) was -1.32.

As for TACTGAGAGGCCAGCTAAAACTGCAGATTG, the binding signal (log2 normalized intensity) is -1.29.

Turning to GGGTGGGGTTGGAGTCCAGAGTTCAGGTAG, the binding signal (log2 normalized intensity) worked out at 3.51.

AACTGTACTTTGGACTGGGGACCTGGTCTG: the binding signal (log2 normalized intensity) was 4.79.
